Test results: paper PMC8991247
No constants are given. Whether binding was seen depends on the method and setting. In cells and extracts the contact can be indirect. Some entries that bind do so weakly or less than the wild type. For some assays here: Sequences can lack the tags named with a protein. Each block holds one molecule with its values, some of them ahead of it.

Sequences of proteins named here, by UniProt entry; tags and fusion partners are left off.
UniProt A5PLL7: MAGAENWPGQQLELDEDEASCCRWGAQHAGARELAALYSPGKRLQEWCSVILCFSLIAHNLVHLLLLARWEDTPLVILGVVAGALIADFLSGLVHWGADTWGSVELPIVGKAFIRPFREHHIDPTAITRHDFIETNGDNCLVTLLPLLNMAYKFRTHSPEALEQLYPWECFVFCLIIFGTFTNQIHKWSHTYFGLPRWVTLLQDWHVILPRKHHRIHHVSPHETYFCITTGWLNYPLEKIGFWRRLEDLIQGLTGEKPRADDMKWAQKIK

Columns and labels:
[1] = molecular target: T1, GFP-ULK1 (UniProt O75385); assay: co-IP; HEK293T cells transfected for 24 h; RIPA lysates (1 mg), IP with anti-FLAG or anti-GFP and protein G sepharose, 2 h at 4 °C, five washes, western blot; some panels with or without 50 μM CQ, in TRAF6-/- cells, with FLAG-TMEM189 overexpressed or in stable knockdown cells
T1 sequence: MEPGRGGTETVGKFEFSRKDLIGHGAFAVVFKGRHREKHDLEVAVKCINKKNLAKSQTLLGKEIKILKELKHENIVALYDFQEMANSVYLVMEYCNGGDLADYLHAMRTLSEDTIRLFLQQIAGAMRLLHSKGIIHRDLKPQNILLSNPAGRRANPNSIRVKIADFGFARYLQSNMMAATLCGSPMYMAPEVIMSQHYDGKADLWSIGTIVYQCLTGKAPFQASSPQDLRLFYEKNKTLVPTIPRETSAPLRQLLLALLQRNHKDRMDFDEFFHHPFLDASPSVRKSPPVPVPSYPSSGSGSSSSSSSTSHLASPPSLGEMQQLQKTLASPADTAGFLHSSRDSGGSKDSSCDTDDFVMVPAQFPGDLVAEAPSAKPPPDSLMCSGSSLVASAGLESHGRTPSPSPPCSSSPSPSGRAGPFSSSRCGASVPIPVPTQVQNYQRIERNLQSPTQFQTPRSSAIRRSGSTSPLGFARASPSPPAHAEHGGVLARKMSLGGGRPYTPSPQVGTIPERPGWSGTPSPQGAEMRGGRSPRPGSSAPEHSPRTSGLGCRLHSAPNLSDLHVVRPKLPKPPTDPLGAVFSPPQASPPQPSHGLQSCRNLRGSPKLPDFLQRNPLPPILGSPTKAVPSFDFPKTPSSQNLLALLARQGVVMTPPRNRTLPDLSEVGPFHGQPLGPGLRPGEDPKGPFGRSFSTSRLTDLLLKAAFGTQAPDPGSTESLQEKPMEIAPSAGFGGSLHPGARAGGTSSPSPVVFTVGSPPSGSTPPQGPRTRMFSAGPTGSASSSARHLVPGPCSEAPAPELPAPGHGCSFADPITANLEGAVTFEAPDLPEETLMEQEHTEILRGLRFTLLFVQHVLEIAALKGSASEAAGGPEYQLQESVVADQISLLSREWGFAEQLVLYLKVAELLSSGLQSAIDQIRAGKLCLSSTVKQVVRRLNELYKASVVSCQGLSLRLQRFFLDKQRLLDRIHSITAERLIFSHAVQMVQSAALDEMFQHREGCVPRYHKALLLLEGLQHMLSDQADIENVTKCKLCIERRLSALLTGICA

[2] = molecular target: T2, GFP-ULK1-CTD^828-1050 (UniProt O75385); assay: as above
T2 sequence: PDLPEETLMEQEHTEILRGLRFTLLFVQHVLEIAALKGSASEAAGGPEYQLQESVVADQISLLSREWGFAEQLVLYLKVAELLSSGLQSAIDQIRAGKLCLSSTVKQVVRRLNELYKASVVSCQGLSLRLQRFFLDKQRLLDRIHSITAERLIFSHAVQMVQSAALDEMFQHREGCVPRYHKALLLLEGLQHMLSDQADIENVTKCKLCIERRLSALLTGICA

[3] = molecular target: T3, GFP-ULK1-S/T^279-827 (UniProt O75385); assay: as above
T3 sequence: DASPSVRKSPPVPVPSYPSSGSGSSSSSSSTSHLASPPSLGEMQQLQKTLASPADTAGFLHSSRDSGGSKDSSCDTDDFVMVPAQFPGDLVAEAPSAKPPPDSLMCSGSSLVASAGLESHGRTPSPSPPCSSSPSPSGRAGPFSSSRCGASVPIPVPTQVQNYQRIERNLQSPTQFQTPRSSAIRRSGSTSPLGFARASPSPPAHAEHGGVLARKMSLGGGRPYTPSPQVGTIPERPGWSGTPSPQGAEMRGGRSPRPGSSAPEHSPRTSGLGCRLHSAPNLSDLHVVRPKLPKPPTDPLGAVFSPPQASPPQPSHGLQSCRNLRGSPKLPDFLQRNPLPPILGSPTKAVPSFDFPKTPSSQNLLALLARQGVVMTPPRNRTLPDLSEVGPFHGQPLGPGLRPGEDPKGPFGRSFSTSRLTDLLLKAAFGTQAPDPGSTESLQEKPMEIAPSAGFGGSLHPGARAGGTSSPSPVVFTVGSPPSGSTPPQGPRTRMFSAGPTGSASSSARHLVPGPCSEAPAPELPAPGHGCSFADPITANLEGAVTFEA

[4] = molecular target: T4, endogenous ULK1 (human (endogenous in HEK293T and HeLa)) (UniProt O75385); assay: co-IP; HeLa cells (untransfected with or without EBSS, IP anti-ULK1; ULK1+/+ cells with FLAG-TMEM189, IP anti-FLAG; stable shcontrol or shTMEM189 cells with GFP-ULK1, IP anti-GFP); RIPA lysates, protein G sepharose, 2 h at 4 °C, western blot
T4 sequence: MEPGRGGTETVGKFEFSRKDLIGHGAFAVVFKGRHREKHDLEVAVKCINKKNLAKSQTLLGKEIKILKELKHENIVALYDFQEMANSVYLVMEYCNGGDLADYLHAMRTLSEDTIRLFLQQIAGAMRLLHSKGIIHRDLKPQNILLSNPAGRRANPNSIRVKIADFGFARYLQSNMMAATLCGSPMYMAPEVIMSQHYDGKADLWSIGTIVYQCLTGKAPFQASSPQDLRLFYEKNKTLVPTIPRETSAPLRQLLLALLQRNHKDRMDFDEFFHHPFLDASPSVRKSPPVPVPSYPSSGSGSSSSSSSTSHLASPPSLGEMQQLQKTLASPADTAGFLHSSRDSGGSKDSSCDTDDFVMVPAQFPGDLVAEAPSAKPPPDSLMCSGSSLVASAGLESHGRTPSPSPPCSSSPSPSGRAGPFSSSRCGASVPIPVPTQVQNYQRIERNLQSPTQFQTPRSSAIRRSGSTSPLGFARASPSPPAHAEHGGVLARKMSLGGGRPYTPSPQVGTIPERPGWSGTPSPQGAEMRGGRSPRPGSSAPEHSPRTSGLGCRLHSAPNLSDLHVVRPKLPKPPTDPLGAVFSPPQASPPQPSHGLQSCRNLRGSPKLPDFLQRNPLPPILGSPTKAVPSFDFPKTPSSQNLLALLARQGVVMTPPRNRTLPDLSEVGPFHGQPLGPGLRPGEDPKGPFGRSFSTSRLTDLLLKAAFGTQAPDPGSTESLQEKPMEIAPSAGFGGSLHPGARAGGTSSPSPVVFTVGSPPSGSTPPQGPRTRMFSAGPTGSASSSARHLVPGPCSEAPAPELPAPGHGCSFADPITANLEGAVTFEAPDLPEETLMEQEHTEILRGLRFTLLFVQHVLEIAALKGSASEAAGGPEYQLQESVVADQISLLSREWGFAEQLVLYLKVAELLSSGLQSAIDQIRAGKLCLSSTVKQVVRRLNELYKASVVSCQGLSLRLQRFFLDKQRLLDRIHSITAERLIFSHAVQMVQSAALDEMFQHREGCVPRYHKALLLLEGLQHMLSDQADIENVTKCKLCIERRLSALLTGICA

[5] = molecular target: T5, GFP-ULK1, O75385; assay: co-IP; GFP-ULK1 and HA-ULK1 co-expressed, with or without FLAG-TMEM189; IP anti-GFP, blot for HA-ULK1; the text says HeLa cells, the legend HEK293T cells; conditions: remark: other sources report otherwise
T5 chain: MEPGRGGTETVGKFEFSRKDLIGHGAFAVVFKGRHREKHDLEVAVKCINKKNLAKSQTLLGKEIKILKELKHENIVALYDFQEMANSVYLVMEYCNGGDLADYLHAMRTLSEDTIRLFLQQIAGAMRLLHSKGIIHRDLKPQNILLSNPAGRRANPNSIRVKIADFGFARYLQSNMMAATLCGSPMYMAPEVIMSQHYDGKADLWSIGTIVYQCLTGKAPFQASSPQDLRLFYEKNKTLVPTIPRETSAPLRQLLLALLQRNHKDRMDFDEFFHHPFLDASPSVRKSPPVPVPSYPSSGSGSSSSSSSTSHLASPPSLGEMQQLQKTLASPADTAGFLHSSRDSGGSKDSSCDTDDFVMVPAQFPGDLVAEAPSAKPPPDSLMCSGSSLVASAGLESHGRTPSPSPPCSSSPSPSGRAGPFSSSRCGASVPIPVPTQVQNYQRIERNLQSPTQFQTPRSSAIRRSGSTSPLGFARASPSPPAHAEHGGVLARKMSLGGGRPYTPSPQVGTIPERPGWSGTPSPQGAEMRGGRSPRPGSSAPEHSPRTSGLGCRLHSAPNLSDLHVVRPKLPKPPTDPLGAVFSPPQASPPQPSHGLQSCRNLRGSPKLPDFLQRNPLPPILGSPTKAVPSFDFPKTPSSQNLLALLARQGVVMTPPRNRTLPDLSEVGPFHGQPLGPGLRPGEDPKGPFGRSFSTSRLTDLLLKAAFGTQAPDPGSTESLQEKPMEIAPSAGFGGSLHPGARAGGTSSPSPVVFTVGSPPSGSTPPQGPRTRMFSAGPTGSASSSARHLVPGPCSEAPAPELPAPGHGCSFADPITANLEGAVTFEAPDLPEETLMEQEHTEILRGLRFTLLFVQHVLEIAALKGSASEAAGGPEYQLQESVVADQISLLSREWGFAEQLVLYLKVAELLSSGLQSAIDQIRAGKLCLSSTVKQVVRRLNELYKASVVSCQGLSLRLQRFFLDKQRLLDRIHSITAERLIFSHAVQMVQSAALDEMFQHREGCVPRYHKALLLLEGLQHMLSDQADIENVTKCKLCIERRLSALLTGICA

Molecule: TMEM189-MYC (from UniProt A5PLL7 1-270)
- binding [2]: no binding
- binding [3]: binds

B1: GFP-ULK1, O75385 1-1050 (protein)
chain: MEPGRGGTETVGKFEFSRKDLIGHGAFAVVFKGRHREKHDLEVAVKCINKKNLAKSQTLLGKEIKILKELKHENIVALYDFQEMANSVYLVMEYCNGGDLADYLHAMRTLSEDTIRLFLQQIAGAMRLLHSKGIIHRDLKPQNILLSNPAGRRANPNSIRVKIADFGFARYLQSNMMAATLCGSPMYMAPEVIMSQHYDGKADLWSIGTIVYQCLTGKAPFQASSPQDLRLFYEKNKTLVPTIPRETSAPLRQLLLALLQRNHKDRMDFDEFFHHPFLDASPSVRKSPPVPVPSYPSSGSGSSSSSSSTSHLASPPSLGEMQQLQKTLASPADTAGFLHSSRDSGGSKDSSCDTDDFVMVPAQFPGDLVAEAPSAKPPPDSLMCSGSSLVASAGLESHGRTPSPSPPCSSSPSPSGRAGPFSSSRCGASVPIPVPTQVQNYQRIERNLQSPTQFQTPRSSAIRRSGSTSPLGFARASPSPPAHAEHGGVLARKMSLGGGRPYTPSPQVGTIPERPGWSGTPSPQGAEMRGGRSPRPGSSAPEHSPRTSGLGCRLHSAPNLSDLHVVRPKLPKPPTDPLGAVFSPPQASPPQPSHGLQSCRNLRGSPKLPDFLQRNPLPPILGSPTKAVPSFDFPKTPSSQNLLALLARQGVVMTPPRNRTLPDLSEVGPFHGQPLGPGLRPGEDPKGPFGRSFSTSRLTDLLLKAAFGTQAPDPGSTESLQEKPMEIAPSAGFGGSLHPGARAGGTSSPSPVVFTVGSPPSGSTPPQGPRTRMFSAGPTGSASSSARHLVPGPCSEAPAPELPAPGHGCSFADPITANLEGAVTFEAPDLPEETLMEQEHTEILRGLRFTLLFVQHVLEIAALKGSASEAAGGPEYQLQESVVADQISLLSREWGFAEQLVLYLKVAELLSSGLQSAIDQIRAGKLCLSSTVKQVVRRLNELYKASVVSCQGLSLRLQRFFLDKQRLLDRIHSITAERLIFSHAVQMVQSAALDEMFQHREGCVPRYHKALLLLEGLQHMLSDQADIENVTKCKLCIERRLSALLTGICA
- binding [5]: binds

Next, values leading:

- binding [1]: binds
Molecule: FLAG-TMEM189 (from UniProt A5PLL7 1-270)

- binding [4]: binds
Molecule: endogenous TMEM189 (from UniProt A5PLL7 1-270)
